Experimental data taken from the supplement of paper PMC6089552.
Out of some 3,200 compounds screened, about 300 (9.4%) showed activity. The entries are a selection whose mix differs from that of the whole data set.

Test system: A673/TR/shEF
Test: cell viability (LOESS-normalised, relative to median of negative controls) (log2 ratio); higher = more viable cells (less compound effect), active = hit call of the paper (over 3 MAD below the median)
Details: treatment time: 72 h
Outline: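 Doxycycline, present or absent from 24 h before compounds, was used to induce EWS-FLI1 shRNA knockdown in A673/TR/shEF Ewing sarcoma cells at 1,500 per well in 384-well plates. Cells then received library compounds at two or more concentrations, or DMSO controls, for three days. Viability was measured by CellTiter-Glo luminescence on an Envision reader, and per-plate LOESS correction, division by the negative-control median and log2 transformation followed.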

[1] = 0.25 µM, library screen: screen1, EWS-FLI1 expression: high (no doxycycline)
[2] = 0.25 µM, library screen: screen1, EWS-FLI1 expression: low (doxycycline-induced shRNA knockdown)
[3] = 0.25 µM, library screen: screen2, EWS-FLI1 expression: high (no doxycycline)
[4] = 0.25 µM, library screen: screen2, EWS-FLI1 expression: low (doxycycline-induced shRNA knockdown)
[5] = 2.5 µM, library screen: screen1, EWS-FLI1 expression: high (no doxycycline)
[6] = 2.5 µM, library screen: screen1, EWS-FLI1 expression: low (doxycycline-induced shRNA knockdown)
[7] = 2.5 µM, library screen: screen2, EWS-FLI1 expression: high (no doxycycline)
[8] = 2.5 µM, library screen: screen2, EWS-FLI1 expression: low (doxycycline-induced shRNA knockdown)
[9] = 0.103 µM, library screen: screen3, EWS-FLI1 expression: high (no doxycycline)
[10] = 0.103 µM, library screen: screen3, EWS-FLI1 expression: low (doxycycline-induced shRNA knockdown)
[11] = 0.308 µM, library screen: screen3, EWS-FLI1 expression: high (no doxycycline)
[12] = 0.308 µM, library screen: screen3, EWS-FLI1 expression: low (doxycycline-induced shRNA knockdown)
[13] = 0.926 µM, library screen: screen3, EWS-FLI1 expression: high (no doxycycline)
[14] = 0.926 µM, library screen: screen3, EWS-FLI1 expression: low (doxycycline-induced shRNA knockdown)
[15] = 2.8 µM, library screen: screen3, EWS-FLI1 expression: high (no doxycycline)
[16] = 2.8 µM, library screen: screen3, EWS-FLI1 expression: low (doxycycline-induced shRNA knockdown)
[17] = 8.3 µM, library screen: screen3, EWS-FLI1 expression: high (no doxycycline)
[18] = 8.3 µM, library screen: screen3, EWS-FLI1 expression: low (doxycycline-induced shRNA knockdown)
[19] = 25 µM, library screen: screen3, EWS-FLI1 expression: high (no doxycycline)
[20] = 25 µM, library screen: screen3, EWS-FLI1 expression: low (doxycycline-induced shRNA knockdown)

Measured: cell viability (log2)

CCN1CCCC1CNC(=O)c1cc(S(N)(=O)=O)ccc1OC (centres undefined)
inactive: [1] 0.0596 | [2] 0.086 | [3] 0.121 | [4] 0.0393 | [5] 0.131 | [6] 0.024 | [7] 0.115 | [8] 0.0627

COc1ccc(-c2ccc3cc(C(=O)O)ccc3c2)cc1C12CC3CC(CC(C3)C1)C2
inactive: [9] 0.102 | [10] 0.161 | [11] 0.115 | [12] 0.135 | [13] 0.165 | [14] 0.126 | [15] 0.00566 | [16] 0.133 | [17] 0.0112 | [18] 0.0627 | [19] 0.0426 | [20] 0.101

O=C(O)c1cc2cc(F)ccc2[nH]1
inactive: [1] 0.0776 | [2] -0.00933 | [4] 0.0925 | [5] 0.156 | [6] 0.00267 | [7] 0.154 | [8] 0.0908
active: [3] -0.173

O=C(O)c1cccnc1
inactive: [9] 0.122 | [10] 0.0859 | [1] 0.026 | [2] 0.0468 | [11] 0.125 | [12] 0.0891 | [13] 0.033 | [14] 0.0696 | [5] 0.14 | [6] 0.000707 | [15] 0.00382 | [16] 0.0785 | [17] 0.0287 | [18] 0.0629 | [19] 0.0609 | [20] 0.0367

CCCCc1oc2ccccc2c1C(=O)c1cc(I)c(OCCN(CC)CC)c(I)c1
inactive: [1] 0.163 | [2] 0.0374 | [3] 0.0155 | [4] 0.134 | [5] 0.154 | [6] 0.147 | [7] 0.103 | [8] 0.193

O=c1cccc2ccc(O)c(O)c2c1O
inactive: [1] 0.0319 | [2] -0.0442 | [5] 0.142 | [6] -0.0155

O=C(O)CSc1nnc(COc2ccccc2)n1-c1ccc(Cl)cc1
inactive: [1] 0.0719 | [2] -0.0199 | [5] 0.0305 | [6] 0.0659

N[C@@H](COP(=O)(O)O)C(=O)O
inactive: [3] 0.136 | [4] 0.0963 | [7] 0.109 | [8] 0.0529

Cc1cccc(N(C)C(=S)Oc2ccc3ccccc3c2)c1
inactive: [1] 0.128 | [2] 0.0463 | [5] 0.15 | [6] 0.162

CC1(COc2ccc(CC3SC(=O)NC3=O)cc2)CCCCC1 (centres undefined)
inactive: [3] 0.267 | [4] 0.13 | [7] 0.13 | [8] 0.0913

COc1ccc(-c2coc3cc(O)ccc3c2=O)c(OC)c1
inactive: [1] 0.0725 | [2] -0.0145 | [5] 0.104 | [6] -0.0119

O=C(O)CCC(=O)c1ccc(-c2ccccc2)cc1
inactive: [1] 0.0194 | [2] -0.00397 | [5] 0.14 | [6] 0.0593

O=c1c2ccccc2[nH]c2ccccc12
inactive: 0.025 µM, library screen: screen2, EWS-FLI1 expression: high (no doxycycline) 0.0276 | 0.025 µM, library screen: screen2, EWS-FLI1 expression: low (doxycycline-induced shRNA knockdown) 0.00968 | [3] 0.0984 | [4] -0.0475 | [7] 0.133 | [8] 0.0137 | 25 µM, library screen: screen2, EWS-FLI1 expression: high (no doxycycline) 0.0105 | 25 µM, library screen: screen2, EWS-FLI1 expression: low (doxycycline-induced shRNA knockdown) -0.000171

CN1CCN2c3ccccc3Cc3ccccc3C2C1 (centres undefined)
inactive: [9] 0.00273 | [10] 0.0342 | [3] 0.152 | [4] 0.0884 | [11] -0.0924 | [12] 0.0198 | [13] -0.015 | [14] -0.00365 | [7] 0.0952 | [8] 0.112 | [15] 2.2e-06 | [16] -0.00496 | [17] 0.0301 | [18] 0.0611 | [19] 0.0459 | [20] 0.00696

N[C@@H](Cc1ccc(O)c(O)c1)C(=O)O
inactive: [9] 0.0249 | [10] 0.0537 | [1] 0.089 | [2] 0.0839 | [3] 0.0601 | [4] 0.041 | [11] 0.142 | [12] 0.082 | [13] 0.0359 | [14] 0.0472 | [5] 0.208 | [6] 0.085 | [7] 0.0538 | [8] 0.0939 | [15] 0.121 | [16] 0.0993 | [17] 0.0567 | [18] 0.0427 | [19] 0.106 | [20] 0.117
